Measured values from the supplement of paper PMC8728848.
Some of the results follow.

Experiments:
Assay in all cases: glycan array binding signal (z-score within array); higher = stronger binding
Settings in all cases: glycan notation: IUPAC condensed, linker removed
[1] = molecular target: Gal(b1-4)GlcNAc(b1-3)Gal(b1-4)GlcNAc(b1-3)Gal(b1-4)GlcNAc
How it was run: (§1)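 Negative Z-scores can be read as non-binding. The Z-score is calculated within each array and then averaged across arrays of one protein sequence at different concentrations or buffers and across linkers. Arrays, 3228 in all, were curated from the Consortium for Functional Glycomics database and kept only where the protein sequence was available.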

[2] = molecular target: Gal(b1-4)GlcNAc(b1-3)Gal(b1-4)[Fuc(a1-3)]GlcNAc(b1-3)Gal(b1-4)[Fuc(a1-3)]GlcNAc
How it was run: as §1

[3] = molecular target: Gal(b1-4)GlcNAc(b1-3)GalNAc
How it was run: as §1

[4] = molecular target: Gal(b1-4)GlcNAc(b1-3)[Gal(b1-4)GlcNAc(b1-6)]Gal(b1-4)GlcNAc
How it was run: as §1

[5] = molecular target: Gal(b1-4)GlcNAc(b1-3)[GlcNAc(b1-6)]Gal(b1-4)GlcNAc
How it was run: as §1

[6] = molecular target: Gal(b1-4)GlcNAc(b1-6)Gal(b1-4)GlcNAc
How it was run: as §1

[7] = molecular target: Gal(b1-4)GlcNAc(b1-6)Gal(b1-4)GlcNAc(b1-6)GalNAc
How it was run: as §1

[8] = molecular target: Gal(b1-4)GlcNAc(b1-6)GalNAc
How it was run: as §1

[9] = molecular target: Gal(b1-4)GlcNAc(b1-6)[Gal(b1-3)]GalNAc
How it was run: as §1

[10] = molecular target: Gal3S(b1-3)GalNAc
How it was run: as §1

[11] = molecular target: Gal3S(b1-3)GlcNAc
How it was run: as §1

[12] = molecular target: Gal3S(b1-3)[Fuc(a1-4)]GlcNAc
How it was run: as §1

[13] = molecular target: Gal3S(b1-4)Glc
How it was run: as §1

[14] = molecular target: Gal3S(b1-4)Glc6S
How it was run: as §1

[15] = molecular target: Gal3S(b1-4)GlcNAc
How it was run: as §1

[16] = molecular target: Gal3S(b1-4)GlcNAc6S
How it was run: as §1

[17] = molecular target: Gal3S(b1-4)[Fuc(a1-3)]Glc
How it was run: as §1

[18] = molecular target: Gal3S4S(b1-4)GlcNAc
How it was run: as §1

[19] = molecular target: Gal3S6S(b1-4)GlcNAc
How it was run: as §1

[20] = molecular target: Gal3S6S(b1-4)GlcNAc6S
How it was run: as §1

[21] = molecular target: Gal4S(b1-4)GlcNAc
How it was run: as §1

[22] = molecular target: Gal4S6S(b1-4)GlcNAc
How it was run: as §1

[23] = molecular target: Gal6S(b1-4)Glc
How it was run: as §1

[24] = molecular target: Gal6S(b1-4)Glc6S
How it was run: as §1

[25] = molecular target: Gal6S(b1-4)GlcNAc
How it was run: as §1

[26] = molecular target: Gal6S(b1-4)GlcNAc6S
How it was run: as §1

[27] = molecular target: GalNAc(a1-3)Gal
How it was run: as §1

[28] = molecular target: GalNAc(a1-3)GalNAc
How it was run: as §1

[29] = molecular target: GalNAc(b1-3)Gal
How it was run: as §1

[30] = molecular target: GalNAc(b1-3)Gal(a1-4)Gal(b1-4)GlcNAc
How it was run: as §1

[31] = molecular target: GalNAc(b1-3)GalNAc
How it was run: as §1

[32] = molecular target: GalNAc(b1-4)GlcNAc
How it was run: as §1

[33] = molecular target: Glc(a1-4)Glc
How it was run: as §1

[34] = molecular target: Glc(a1-6)Glc(a1-6)Glc
How it was run: as §1

[35] = molecular target: Glc(b1-4)Glc
How it was run: as §1

[36] = molecular target: Glc(b1-6)Glc
How it was run: as §1

[37] = molecular target: GlcA(b1-3)Gal
How it was run: as §1

[38] = molecular target: GlcA(b1-3)GlcNAc
How it was run: as §1

[39] = molecular target: GlcA(b1-6)Gal
How it was run: as §1

[40] = molecular target: GlcNAc(a1-3)Gal(b1-4)GlcNAc
How it was run: as §1

[41] = molecular target: GlcNAc(a1-6)Gal(b1-4)GlcNAc
How it was run: as §1

[42] = molecular target: GlcNAc(b1-2)Gal(b1-3)GalNAc
How it was run: as §1

[43] = molecular target: GlcNAc(b1-2)Man(a1-3)[GlcNAc(b1-2)Man(a1-6)]Man(b1-4)GlcNAc(b1-4)GlcNAc
How it was run: as §1

[44] = molecular target: GlcNAc(b1-3)Gal
How it was run: as §1

[45] = molecular target: GlcNAc(b1-3)Gal(b1-3)GalNAc
How it was run: as §1

B1: mLPHN-1 (Mus musculus), Q80TR1 (protein)
chain: MARLAAALWSLCVTTVLVTSATQGLSRAGLPFGLMRRELACEGYPIELRCPGSDVIMVENANYGRTDDKICDADPFQMENVQCYLPDAFKIMSQRCNNRTQCVVVAGSDAFPDPCPGTYKYLEVQYDCVPYIFVCPGTLQKVLEPTSTHESEHQSGAWCKDPLQAGDRIYVMPWIPYRTDTLTEYASWEDYVAARHTTTYRLPNRVDGTGFVVYDGAVFYNKERTRNIVKYDLRTRIKSGETVINTANYHDTSPYRWGGKTDIDLAVDENGLWVIYATEGNNGRLVVSQLNPYTLRFEGTWETGYDKRSASNAFMVCGVLYVLRSVYVDDDSEAAGNRVDYAFNTNANREEPVSLAFPNPYQFVSSVDYNPRDNQLYVWNNYFVVRYSLEFGPPDPSAGPATSPPLSTTTTARPTPLTSTASPAATTPLRRAPLTTHPVGAINQLGPDLPPATAPAPSTRRPPAPNLHVSPELFCEPREVRRVQWPATQQGMLVERPCPKGTRGIASFQCLPALGLWNPRGPDLSNCTSPWVNQVAQKIKSGENAANIASELARHTRGSIYAGDVSSSVKLMEQLLDILDAQLQALRPIERESAGKNYNKMHKRERTCKDYIKAVVETVDNLLRPEALESWKDMNATEQVHTATMLLDVLEEGAFLLADNVREPARFLAAKQNVVLEVTVLNTEGQVQELVFPQEYPSENSIQLSANTIKQNSRNGVVKVVFILYNNLGLFLSTENATVKLAGEAGTGGPGGASLVVNSQVIAASINKESSRVFLMDPVIFTVAHLEAKNHFNANCSFWNYSERSMLGYWSTQGCRLVESNKTHTTCACSHLTNFAVLMAHREIYQGRINELLLSVITWVGIVISLVCLAICISTFCFLRGLQTDRNTIHKNLCINLFLAELLFLVGIDKTQYEVACPIFAGLLHYFFLAAFSWLCLEGVHLYLLLVEVFESEYSRTKYYYLGGYCFPALVVGIAAAIDYRSYGTEKACWLRVDNYFIWSFIGPVSFVIVVNLVFLMVTLHKMIRSSSVLKPDSSRLDNIKSWALGAIALLFLLGLTWAFGLLFINKESVVMAYLFTTFNAFQGVFIFVFHCALQKKVHKEYSKCLRHSYCCIRSPPGGTHGSLKTSAMRSNTRYYTGTQSRIRRMWNDTVRKQTESSFMAGDINSTPTLNRGTMGNHLLTNPVLQPRGGTSPYNTLIAESVGFNPSSPPVFNSPGSYREPKHPLGGREACGMDTLPLNGNFNNSYSLRSGDFPPGDGGPEPPRGRNLADAAAFEKMIISELVHNNLRGASGGAKGPPPEPPVPPVPGVSEDEAGGPGSADRAEIELLYKALEEPLLLPRAQSVLYQSDLDESESCTAEDGATSRPLSSPPGRDSLYASGANLRDSPSYPDSSPEGPNEALPPPPPAPPGPPEIYYTSRPPALVARNPLQGYYQVRRPSHEGYLAAPSLEGPGPDGDGQMQLVTSL
B1 was tested, and the “glycan array binding signal (z-score)” value [1] was -0.382, the “glycan array binding signal (z-score)” value [2] was 0.078 and the “glycan array binding signal (z-score)” value [3] was -0.005. For the same binder, the “glycan array binding signal (z-score)” value [4] was 0.085, the “glycan array binding signal (z-score)” value [5] was 0.164 and the “glycan array binding signal (z-score)” value [6] was -0.114. For the same binder, the “glycan array binding signal (z-score)” value [7] was -0.313, the “glycan array binding signal (z-score)” value [8] was -0.096 and the “glycan array binding signal (z-score)” value [9] was -0.368. For the same binder, the “glycan array binding signal (z-score)” value [10] was -0.307, the “glycan array binding signal (z-score)” value [11] was 2.08 and the “glycan array binding signal (z-score)” value [12] was -0.155. For the same binder, the “glycan array binding signal (z-score)” value [13] was -0.362, the “glycan array binding signal (z-score)” value [14] was -0.26 and the “glycan array binding signal (z-score)” value [15] was 0.39. For the same binder, the “glycan array binding signal (z-score)” value [16] was -0.192, the “glycan array binding signal (z-score)” value [17] was 0.673 and the “glycan array binding signal (z-score)” value [18] was 0.041. For the same binder, the “glycan array binding signal (z-score)” value [19] was 0.333, the “glycan array binding signal (z-score)” value [20] was -0.407 and the “glycan array binding signal (z-score)” value [21] was 0.468. The “glycan array binding signal (z-score)” value [22] was -0.274, the “glycan array binding signal (z-score)” value [23] was 0.775 and the “glycan array binding signal (z-score)” value [24] was 1.13. For the same binder, the “glycan array binding signal (z-score)” value [25] was 1.27, the “glycan array binding signal (z-score)” value [26] was 0.166 and the “glycan array binding signal (z-score)” value [27] was 0.869. The “glycan array binding signal (z-score)” value [28] was -0.202, the “glycan array binding signal (z-score)” value [29] was 0.793 and the “glycan array binding signal (z-score)” value [30] was 0.812. The “glycan array binding signal (z-score)” value [31] was 0.146, the “glycan array binding signal (z-score)” value [32] was 0.132 and the “glycan array binding signal (z-score)” value [33] was -0.159. For the same binder, the “glycan array binding signal (z-score)” value [34] was 0.283, the “glycan array binding signal (z-score)” value [35] was -0.267 and the “glycan array binding signal (z-score)” value [36] was -0.288. The “glycan array binding signal (z-score)” value [37] was -0.144, the “glycan array binding signal (z-score)” value [38] was -0.194 and the “glycan array binding signal (z-score)” value [39] was 0.017. The “glycan array binding signal (z-score)” value [40] was -0.379, the “glycan array binding signal (z-score)” value [41] was 0.099 and the “glycan array binding signal (z-score)” value [42] was -0.412. For the same binder, the “glycan array binding signal (z-score)” value [43] was -0.269, the “glycan array binding signal (z-score)” value [44] was 0.059 and the “glycan array binding signal (z-score)” value [45] was 0.047.
